Source: PubChem BioAssay AID330 (DTP/NCI, 2004)
Values joined by “and” are separate entries in the source; they are usually repeats but may differ in a detail not shown here. Equal entries are not always repeated. Further values from the same series stand in other lists. Toxic doses and inconclusive results are not listed.

Test system: P388 leukemia ip, CD2F1 mice, survival T/C
Assay: NCI In Vivo Anticancer Drug Screen. Data for tumor model P388 Leukemia (intraperitoneal) in CD2F1 (CDF1) mice
Details: endpoint: median survival time, higher = longer survival
Experimental: The antitumor activity of compounds was measured in mice bearing transplantable tumors. Survival or tumor size were measured and the results are expressed as the measurement made in the treated group (T) divided by the measurement made in the vehicle treated control group (C). The tumor model used in this assay is P388 Leukemia (intraperitoneal) in CD2F1 (CDF1) mice

Which T/C (dose: 0.75 mg/kg/injection, schedule: Q01DX015 (ip), vehicle: sodium bicarbonate) does the source give for `CN(Cc1cnc2nc(N)nc(N)c2n1)c1ccc(C(=O)N[C@@H](CCC(=O)O)C(=O)O)cc1` here?
The T/C was 220 % of control.

And the T/C (dose: 1.0 mg/kg/injection, schedule: Q02DX005 (ip), vehicle: saline)?
The T/C was 90 % of control.

And the T/C (dose: 1.3 mg/kg/injection, schedule: Q01DX009 (ip), vehicle: sodium bicarbonate)?
The T/C was 205 % of control and 223 % of control.

And the T/C (dose: 1.5 mg/kg/injection, schedule: Q01DX009 (ip), vehicle: other)?
The T/C was 213 % of control.

And the T/C (dose: 1.5 mg/kg/injection, schedule: Q01DX009 (ip), vehicle: saline)?
The T/C was 213 % of control.

What about the T/C (dose: 1.5 mg/kg/injection, schedule: Q01DX015 (ip), vehicle: sodium bicarbonate) of the same molecule?
Its T/C is 215 % of control and 263 % of control.

What about the T/C (dose: 1.5 mg/kg/injection, schedule: Q## X009 (ip), vehicle: sodium bicarbonate) of the same molecule?
Its T/C is 224 % of control.

And the T/C (dose: 3.0 mg/kg/injection, schedule: Q01DX009 (ip), vehicle: other)?
The T/C was 90 % of control.

What about the T/C (dose: 3.0 mg/kg/injection, schedule: Q01DX015 (ip), vehicle: sodium bicarbonate) of the same molecule?
The T/C was 271 % of control.

And the T/C (dose: 3.0 mg/kg/injection, schedule: Q02DX005 (ip), vehicle: sodium bicarbonate)?
The T/C was 209 % of control.

And the T/C (dose: 4.0 mg/kg/injection, schedule: Q04DX003 (ip), vehicle: sodium bicarbonate)?
The T/C was 207 % of control.

What about the T/C (dose: 5.4 mg/kg/injection, schedule: Q04DX003 (ip), vehicle: sodium bicarbonate) of the same molecule?
The T/C was 209 % of control.

And the T/C (dose: 7.0 mg/kg/injection, schedule: Q01DX005 (ip), vehicle: sodium bicarbonate)?
Its T/C is 90 % of control.

And the T/C (dose: 8.0 mg/kg/injection, schedule: Q04DX003 (ip), vehicle: sodium bicarbonate)?
The T/C was 209 % of control.

And the T/C (dose: 8.64 mg/kg/injection, schedule: Q04DX003 (ip), vehicle: sodium bicarbonate)?
Its T/C is 224 % of control.

And the T/C (dose: 9.0 mg/kg/injection, schedule: Q04DX003 (ip), vehicle: sodium bicarbonate)?
The T/C was 209 % of control.

What about the T/C (dose: 9.2 mg/kg/injection, schedule: Q04DX003 (ip), vehicle: saline) of the same molecule?
The T/C was 231 % of control.

And the T/C (dose: 12.0 mg/kg/injection, schedule: Q04DX003 (ip), vehicle: sodium bicarbonate)?
Its T/C is 217 % of control.

What about the T/C (dose: 14.4 mg/kg/injection, schedule: Q04DX003 (ip), vehicle: sodium bicarbonate) of the same molecule?
Its T/C is 231 % of control.

What about the T/C (dose: 15.0 mg/kg/injection, schedule: Q04DX003 (ip), vehicle: sodium bicarbonate) of the same molecule?
The T/C was 211 % of control.

And the T/C (dose: 15.0 mg/kg/injection, schedule: Q04DX004 (ip), vehicle: sodium bicarbonate)?
The T/C was 225 % of control.

And the T/C (dose: 16.0 mg/kg/injection, schedule: Q04DX003 (ip), vehicle: sodium bicarbonate)?
Its T/C is 225 % of control.

What about the T/C (dose: 18.0 mg/kg/injection, schedule: Q04DX003 (ip), vehicle: sodium bicarbonate) of the same molecule?
Its T/C is 224 % of control.

And the T/C (dose: 24.0 mg/kg/injection, schedule: Q04DX003 (ip), vehicle: sodium bicarbonate)?
Its T/C is 204 % of control and 245 % of control.

And the T/C (dose: 25.0 mg/kg/injection, schedule: Q04DX003 (ip), vehicle: sodium bicarbonate)?
The T/C was 85 % of control.

What about the T/C (dose: 30.0 mg/kg/injection, schedule: Q04DX003 (ip), vehicle: sodium bicarbonate) of the same molecule?
The T/C was 231 % of control and 247 % of control.

What about the T/C (dose: 33.3 mg/kg/injection, schedule: Q04DX003 (ip), vehicle: sodium bicarbonate) of the same molecule?
The T/C was 96 % of control.

And the T/C (dose: 36.0 mg/kg/injection, schedule: Q04DX002 (ip), vehicle: sodium bicarbonate)?
The T/C was 97 % of control.

What about the T/C (dose: 60.0 mg/kg/injection, schedule: Q01DX001 (ip), vehicle: sodium bicarbonate) of the same molecule?
Its T/C is 50 % of control.

What about the T/C (dose: 60.0 mg/kg/injection, schedule: Q04DX002 (ip), vehicle: sodium bicarbonate) of the same molecule?
Its T/C is 221 % of control.

Which T/C (dose: 0.07 mg/kg/injection, schedule: Q04DX003 (ip), vehicle: saline) does the source give for `COc1cc2cc(c1Cl)N(C)C(=O)C[C@H](OC(=O)[C@H](C)N(C)C(C)=O)[C@]1(C)O[C@H]1[C@H](C)[C@@H]1C[C@@](O)(NC(=O)O1)[C@H](OC)C=C/C=C(\C)C2` here?
Its T/C is 183 % of control.

And the T/C (dose: 0.11 mg/kg/injection, schedule: Q04DX003 (ip), vehicle: saline)?
Its T/C is 188 % of control.

What about the T/C (dose: 0.24 mg/kg/injection, schedule: Q04DX002 (ip), vehicle: saline + alcohol) of the same molecule?
The T/C was 92 % of control.

What about the T/C (dose: 0.3 mg/kg/injection, schedule: Q04DX003 (ip), vehicle: saline) of the same molecule?
Its T/C is 218 % of control.

And the T/C (dose: 0.4 mg/kg/injection, schedule: Q04DX002 (ip), vehicle: saline + alcohol)?
Its T/C is 89 % of control.

And the T/C (dose: 0.3 micrograms/kg/injection, schedule: Q01DX009 (sc), vehicle: other)?
Its T/C is 95 % of control.

And the T/C (dose: 1.0 micrograms/kg/injection, schedule: Q01DX001 (sc), vehicle: other)?
Its T/C is 95 % of control.

And the T/C (dose: 2.0 micrograms/kg/injection, schedule: Q01DX009 (oral), vehicle: other)?
Its T/C is 95 % of control.

And the T/C (dose: 4.0 micrograms/kg/injection, schedule: Q01DX001 (sc), vehicle: other)?
The T/C was 90 % of control.

What about the T/C (dose: 16.0 micrograms/kg/injection, schedule: Q01DX009 (ip), vehicle: other) of the same molecule?
The T/C was 186 % of control.

What about the T/C (dose: 16.0 micrograms/kg/injection, schedule: Q01DX009 (ip), vehicle: water) of the same molecule?
Its T/C is 175 % of control.

What about the T/C (dose: 16.0 micrograms/kg/injection, schedule: Q03HX008 (ip), vehicle: other) of the same molecule?
Its T/C is 181 % of control.

And the T/C (dose: 16.0 micrograms/kg/injection, schedule: Q03HX016 (ip), vehicle: other)?
Its T/C is 190 % of control.

And the T/C (dose: 16.0 micrograms/kg/injection, schedule: Q03HX016 (ip), vehicle: saline + alcohol)?
The T/C was 181 % of control.

What about the T/C (dose: 16.0 micrograms/kg/injection, schedule: Q03HX024 (ip), vehicle: saline + alcohol) of the same molecule?
Its T/C is 195 % of control.

What about the T/C (dose: 32.0 micrograms/kg/injection, schedule: Q03HX008 (ip), vehicle: other) of the same molecule?
The T/C was 200 % of control.

And the T/C (dose: 32.0 micrograms/kg/injection, schedule: Q03HX008 (ip), vehicle: saline + alcohol)?
Its T/C is 181 % of control.

And the T/C (dose: 32.0 micrograms/kg/injection, schedule: Q03HX016 (ip), vehicle: other)?
Its T/C is 177 % of control.

And the T/C (dose: 32.0 micrograms/kg/injection, schedule: Q04DX003 (ip), vehicle: water)?
The T/C was 181 % of control.

What about the T/C (dose: 64.0 micrograms/kg/injection, schedule: Q03HX016 (ip), vehicle: saline + alcohol) of the same molecule?
Its T/C is 177 % of control.

What about the T/C (dose: 64.0 micrograms/kg/injection, schedule: Q04DX003 (ip), vehicle: other) of the same molecule?
Its T/C is 181 % of control.

And the T/C (dose: 64.0 micrograms/kg/injection, schedule: Q04DX003 (ip), vehicle: water)?
The T/C was 177 % of control.

What about the T/C (dose: 100.0 micrograms/kg/injection, schedule: Q01DX005 (ip), vehicle: saline) of the same molecule?
The T/C was 200 % of control.

And the T/C (dose: 100.0 micrograms/kg/injection, schedule: Q01DX009 (ip), vehicle: saline + alcohol)?
Its T/C is 176 % of control.

What about the T/C (dose: 128.0 micrograms/kg/injection, schedule: Q04DX003 (ip), vehicle: other) of the same molecule?
The T/C was 190 % of control.

And the T/C (dose: 128.0 micrograms/kg/injection, schedule: Q04DX003 (ip), vehicle: water)?
The T/C was 190 % of control.

And the T/C (dose: 240.0 micrograms/kg/injection, schedule: Q04DX002 (ip), vehicle: saline + alcohol)?
The T/C was 178 % of control.

And the T/C (dose: 256.0 micrograms/kg/injection, schedule: Q08DX002 (ip), vehicle: other)?
The T/C was 181 % of control.

What about the T/C (dose: 256.0 micrograms/kg/injection, schedule: Q08DX002 (ip), vehicle: saline + alcohol) of the same molecule?
The T/C was 181 % of control.

And the T/C (dose: 512.0 micrograms/kg/injection, schedule: Q08DX002 (ip), vehicle: saline + alcohol)?
Its T/C is 177 % of control.

What about the T/C (dose: 512.0 micrograms/kg/injection, schedule: Q08DX002 (ip), vehicle: saline) of the same molecule?
The T/C was 181 % of control.
